{"source": "the supplement of paper PMC10338343", "note": "± gives the standard deviation. The full ranking holds about 6,600 sequences; the median of “pre-steady-state target cleavage rate” is about 0.07, and the highest 2% start at about 0.72. This is a selection; strong and weak results do not stand in their true shares.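 Further: 1 nM active piRISC with 0.1 nM target library at 33 °C single turnover.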"}
{"tested_on": "MIWI (PIWIL1) piRISC loaded with Kctd7 piRNA (30 nt)", "experiment": "pre-steady-state target cleavage rate (min^-1); MIWI and MILI are mouse PIWI proteins and EfPiwi is from a freshwater sponge; tags in brackets are library labels; higher = faster piRNA-guided slicing of the target", "conditions": "guide: Kctd7 piRNA 5'p-UGUUAAUCUCUCAGAGAAGGUGACAGUGAU; auxiliary factor: 500 nM mouse GTSF1", "in_short": "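Reactions were run for 0–8 or 0–960 min at 33 °C in HEPES–potassium acetate buffer, combining 1 nM active affinity-purified piRISC with one synthetic guide, […] transcribed, DNA-blocked target RNA library and, in some cases, 500 nM GTSF1 partner protein. Sequencing of uncleaved targets followed, with normalisation to depth and to weakly complementary targets. Three trials were pooled, k3 was capped at 0.0001 min^-1, and the pre-steady-state cleavage rate was taken from a burst-and-steady-state fit.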"}
{"sequence": "AUCACUGUCACCUUCUCUGAGAGAUUCACA", "pre-steady-state target cleavage rate": "0.657 ± 0.11"}
{"sequence": "UUCACUGUCACCUUGUCUGAGAGAUUUUGA", "pre-steady-state target cleavage rate": "1.06 ± 0.27"}
{"sequence": "UAGUGACUCACCUACACUGAGAGAUUAACA", "pre-steady-state target cleavage rate": "0.0196 ± 0.0042"}
{"sequence": "UACACUGUCACCUUCUCUGAGAGAAUAUGA", "pre-steady-state target cleavage rate": "0.0476 ± 0.02"}
{"sequence": "UAGUGACAGUGGAACUCUGAGAGAUUAAAA", "pre-steady-state target cleavage rate": "< 0.0001"}
{"sequence": "AUCACUGCUCACCUUCUCUGAGAGAUUAACA", "pre-steady-state target cleavage rate": "0.8 ± 0.051"}
{"sequence": "UAGUGACACACGUACUCUGAGAGAUUAACA", "pre-steady-state target cleavage rate": "0.00451 ± 0.0022"}
{"sequence": "UAGUGAGUCACCUUCUCUGAGAGAUUAAAA", "pre-steady-state target cleavage rate": "0.251 ± 0.035"}
{"sequence": "UAGUGACAGUCCUUCUCUGAGAGAUUCACA", "pre-steady-state target cleavage rate": "0.0181 ± 0.0039"}
{"sequence": "UAGUGUCUCACCUUCUCUGUGAGAUUAACA", "pre-steady-state target cleavage rate": "0.0642 ± 0.0069"}
{"sequence": "UAGUGAGUCACCUUGUCUGAGAGAUUAUCA", "pre-steady-state target cleavage rate": "0.0491 ± 0.014"}
{"sequence": "UAGUGACUCUCCUUCUCUGUGAGAUUAACA", "pre-steady-state target cleavage rate": "0.018 ± 0.0033"}
{"sequence": "UUCACUGUCACCUAGUCUGAGAGAUUAACA", "pre-steady-state target cleavage rate": "0.575 ± 0.027"}
{"sequence": "UAGACCGUCACCUUCUCUGAGAGAUUAACA", "pre-steady-state target cleavage rate": "0.597 ± 0.031"}
{"sequence": "UUCACUGUCAGGAUCUCUGAGAGAUUAACA", "pre-steady-state target cleavage rate": "0.205 ± 0.025"}
{"sequence": "AUCACUGUCACCUUCUCUGAGAGAUUAUGA", "pre-steady-state target cleavage rate": "0.104 ± 0.02"}
{"sequence": "UAGUGACAGACGUUCUCUGUGAGAUUAACA", "pre-steady-state target cleavage rate": "0.00632 ± 0.0029"}
{"sequence": "UAGUCAGUCACCUUCUCUGAGAGAAUAACA", "pre-steady-state target cleavage rate": "0.494 ± 0.084"}
{"sequence": "UAGUGUGUCACCUUCUCAGAGUGAUUAACA", "pre-steady-state target cleavage rate": "0.0242 ± 0.0077"}
{"sequence": "UAGACUGUGACCUUCUCUGAGAGAUUUUGA", "pre-steady-state target cleavage rate": "0.00978 ± 0.0037"}
{"sequence": "UACACUGUCACCAUCUCUGUGAGAUUAACA", "pre-steady-state target cleavage rate": "0.188 ± 0.015"}
{"sequence": "UAGUGACACAGCUUGUCUGAGAGAUUAACA", "pre-steady-state target cleavage rate": "0.0643 ± 0.01"}
{"sequence": "UAGUGACUCACCUACUCUGAGACAUUAACA", "pre-steady-state target cleavage rate": "0.0336 ± 0.0048"}
{"sequence": "UAGUCUGUCACGAUCUCUGAGAGAUUAACA", "pre-steady-state target cleavage rate": "0.485 ± 0.029"}
{"sequence": "UAGUGACUCUCCUUCACUGAGAGAUUAACA", "pre-steady-state target cleavage rate": "0.069 ± 0.01"}
{"sequence": "AUCACUGUCACCAUCUCUGAGACAUUAACA", "pre-steady-state target cleavage rate": "0.0987 ± 0.015"}
{"sequence": "UAGUGUGUCACCUUCUCUGAGAGAUUAACC [g2:g25:cont:t1C]", "pre-steady-state target cleavage rate": "0.367 ± 0.029"}
{"sequence": "AACACUGUCACCUUCUCUGAGACAUUAACA", "pre-steady-state target cleavage rate": "0.158 ± 0.012"}
{"sequence": "UAGUGACAGUGCUACUCUGAGAGAUUAUCA", "pre-steady-state target cleavage rate": "< 0.0001"}
{"sequence": "AUGUCUGUCACCUUCUCUGAGAGAUUAACA", "pre-steady-state target cleavage rate": "0.604 ± 0.024"}
{"sequence": "UAGACUGUCACGUUCUCUCAGAGAUUAACA", "pre-steady-state target cleavage rate": "0.0604 ± 0.0045"}
{"sequence": "UAGUGACAGACCUUCUCUGAGAGAUUAUCA", "pre-steady-state target cleavage rate": "0.0948 ± 0.017"}
{"sequence": "UACACUGUCACCUACUCUCAGAGAUUAACA", "pre-steady-state target cleavage rate": "0.061 ± 0.011"}
{"sequence": "AUCACUGUCACCUUCUCAGAGAGAUUAUCA", "pre-steady-state target cleavage rate": "0.176 ± 0.027"}
{"sequence": "UUCACUGUCACCUACUGUGAGAGAUUAACA", "pre-steady-state target cleavage rate": "0.359 ± 0.023"}
{"sequence": "UAGUGUGACAGCUUCUCUGAGAGAUUAACA", "pre-steady-state target cleavage rate": "0.265 ± 0.021"}
{"sequence": "UAGUGACAGUGGAAGUCUGAGUGAUUAACA", "pre-steady-state target cleavage rate": "< 0.0001"}
{"sequence": "UAGACUGUCACCUUCUCUCAGACAUUAACA", "pre-steady-state target cleavage rate": "0.0524 ± 0.0048"}
{"sequence": "UAGUGACUCACCUUGUCUGAGAGAUUUACA", "pre-steady-state target cleavage rate": "0.0403 ± 0.014"}
{"sequence": "UAGUGACAGUGCUACUCUGAGAGUUUAACA", "pre-steady-state target cleavage rate": "< 0.0001"}
{"sequence": "UAGACUGUCACCUUCUCUGAGAGCAUUAACA", "pre-steady-state target cleavage rate": "0.38 ± 0.025"}
{"sequence": "UAGUGACUCACCUUCUCUGAGAGCAUUAACA", "pre-steady-state target cleavage rate": "0.297 ± 0.034"}
{"sequence": "UUCACUGUCACCUUCAGAGAGAGAUUAACA", "pre-steady-state target cleavage rate": "0.0704 ± 0.028"}
{"sequence": "UAGUGUGUCUCCUUCUCUGAGAGAUUUUGA", "pre-steady-state target cleavage rate": "0.0152 ± 0.0044"}
{"sequence": "AUCACUGUCAUCCUUCUCUGAGAGAUUAACA", "pre-steady-state target cleavage rate": "0.354 ± 0.025"}
{"sequence": "UAGUGACAGACCUUCUCUGAGAGAUUGACA", "pre-steady-state target cleavage rate": "0.101 ± 0.016"}
{"sequence": "UAGACUCUCACCUUCACUGAGAGAUUAACA", "pre-steady-state target cleavage rate": "0.279 ± 0.02"}
{"sequence": "AUCACUGACACCUUCUGUGAGAGAUUAACA", "pre-steady-state target cleavage rate": "0.443 ± 0.018"}
{"sequence": "UAGACUGUCACCUUCUCUGAGAGAUUAACU [g2:g27:cont:t1U]", "pre-steady-state target cleavage rate": "0.433 ± 0.054"}
{"sequence": "UUCACUGUCACCUUCUCUGACAGAAUAACA", "pre-steady-state target cleavage rate": "0.0224 ± 0.0065"}
{"sequence": "UAGACUGACACCUUCUCAGAGAGAUUAACA", "pre-steady-state target cleavage rate": "0.219 ± 0.014"}
{"sequence": "UAGACUGUCAUCUUCUCUGAGAGAUUAACA", "pre-steady-state target cleavage rate": "0.848 ± 0.051"}
{"sequence": "UUCACUGUCACCUUCUCUGAGUGAUUUACA", "pre-steady-state target cleavage rate": "0.0357 ± 0.0069"}
{"sequence": "UUCACUGUCACCUUCUCUGAGAGUAUAAGA", "pre-steady-state target cleavage rate": "0.0364 ± 0.013"}
{"sequence": "AUCACUGUCACCUUCUCAGAGAGAUUAACA", "pre-steady-state target cleavage rate": "0.457 ± 0.032"}
{"sequence": "UUCACAGUCAGCUUCUCUGAGAGAUUAACA", "pre-steady-state target cleavage rate": "0.692 ± 0.027"}
{"sequence": "AUCACUGUCACGUUCUCUGAGAGAUUAUGA", "pre-steady-state target cleavage rate": "0.0579 ± 0.013"}
{"sequence": "UACACUGUCACCCUUCUCUGAGAGAUUAACA", "pre-steady-state target cleavage rate": "0.428 ± 0.031"}
{"sequence": "AUCACUGUCACCUUCUCAGAGAGUUUAACA", "pre-steady-state target cleavage rate": "0.371 ± 0.076"}
{"sequence": "UAGUGACAGUCUUUCUCUGAGAGAUUAACA", "pre-steady-state target cleavage rate": "0.0601 ± 0.0069"}
{"sequence": "AAGUCUGUCACCUUCUCUGAGAGAUUUUGA", "pre-steady-state target cleavage rate": "0.0455 ± 0.013"}
{"sequence": "UACACUGUCACCUUCUCUGAGUCUUUAACA", "pre-steady-state target cleavage rate": "0.0259 ± 0.0095"}
{"sequence": "UAGUGAGUCACCUUCUCUGAGAGACUAACA", "pre-steady-state target cleavage rate": "0.22 ± 0.025"}
{"sequence": "UAGACUGUCUCCUUCUCUGUGAGAUUAACA", "pre-steady-state target cleavage rate": "0.218 ± 0.014"}
{"sequence": "UAGUCUGUGACCUUCUCUGAGAGAUUUACA", "pre-steady-state target cleavage rate": "0.243 ± 0.031"}
{"sequence": "UUCACUGUCACCUUCUCUGUGAGAUAUUGA", "pre-steady-state target cleavage rate": "0.0105 ± 0.0045"}
{"sequence": "UAGUGAGUCACCUUCUCGGAGAGAUUAACA", "pre-steady-state target cleavage rate": "0.218 ± 0.017"}
{"sequence": "AUCACUGUCACCUACUGUGAGAGAUUAACA", "pre-steady-state target cleavage rate": "0.464 ± 0.026"}
{"sequence": "UAGUGAGUCACCUUCUCUGAGAGAGUAACA", "pre-steady-state target cleavage rate": "0.368 ± 0.059"}
{"sequence": "UAGUCUGUCACCUUCUCUGAGAGAAUUAACA", "pre-steady-state target cleavage rate": "0.57 ± 0.1"}
{"sequence": "UUCACUCUGACCUUCUCUGAGAGAUUAACA", "pre-steady-state target cleavage rate": "0.455 ± 0.025"}
{"sequence": "UUCAGUGUCACCUUCUCUGAGAGAUUAUGA", "pre-steady-state target cleavage rate": "0.0602 ± 0.014"}
